In this assay the target is recombinant leucyl aminopeptidase of T. cruzi (rLAPTc), N-terminal His-tag (Trypanosoma cruzi). Description: SEC-MALS; 20 μl rLAPTc at 170 μM (10 mg/ml), 25 mM Tris-HCl pH 7.5, 100 mM NaCl, KW 804 column, 20°C, with refractometry.

For one substance, stoichiometry N results are on record in PMC3179936.

Entries with a single value are a further part of the results.

For orientation: stoichiometry N means the number of molecules, sites or subunits per partner or assembly. With “recombinant leucyl aminopeptidase of T. cruzi (rLAPTc), N-terminal His-tag (enzyme)”, the stoichiometry N by setting is: (SEC peak at 8.5 ml elution) 17.5 subunits; (SEC peak at 11.2 ml elution) 3 subunits.
